Positions count from the first letter of the chain named. These are yes or no findings as the source states them, for the method shown. In cells and extracts the contact can be indirect. Some entries that bind do so weakly or less than the wild type. For some assays here: Sequences can lack the tags named with a protein.
Key:
[1] = molecular target: T1, FLAG-UPF1 VV204-205DI (human) (UniProt Q92900); assay: co-IP; anti-FLAG IP from HEK293T cells cotransfected with FLAG-UPF1 (wild-type or mutants) and T7-DHX34 (wild-type or ATPase mutants); RNase A in Figure 3C; T7-DHX34 by western blot
T1 sequence: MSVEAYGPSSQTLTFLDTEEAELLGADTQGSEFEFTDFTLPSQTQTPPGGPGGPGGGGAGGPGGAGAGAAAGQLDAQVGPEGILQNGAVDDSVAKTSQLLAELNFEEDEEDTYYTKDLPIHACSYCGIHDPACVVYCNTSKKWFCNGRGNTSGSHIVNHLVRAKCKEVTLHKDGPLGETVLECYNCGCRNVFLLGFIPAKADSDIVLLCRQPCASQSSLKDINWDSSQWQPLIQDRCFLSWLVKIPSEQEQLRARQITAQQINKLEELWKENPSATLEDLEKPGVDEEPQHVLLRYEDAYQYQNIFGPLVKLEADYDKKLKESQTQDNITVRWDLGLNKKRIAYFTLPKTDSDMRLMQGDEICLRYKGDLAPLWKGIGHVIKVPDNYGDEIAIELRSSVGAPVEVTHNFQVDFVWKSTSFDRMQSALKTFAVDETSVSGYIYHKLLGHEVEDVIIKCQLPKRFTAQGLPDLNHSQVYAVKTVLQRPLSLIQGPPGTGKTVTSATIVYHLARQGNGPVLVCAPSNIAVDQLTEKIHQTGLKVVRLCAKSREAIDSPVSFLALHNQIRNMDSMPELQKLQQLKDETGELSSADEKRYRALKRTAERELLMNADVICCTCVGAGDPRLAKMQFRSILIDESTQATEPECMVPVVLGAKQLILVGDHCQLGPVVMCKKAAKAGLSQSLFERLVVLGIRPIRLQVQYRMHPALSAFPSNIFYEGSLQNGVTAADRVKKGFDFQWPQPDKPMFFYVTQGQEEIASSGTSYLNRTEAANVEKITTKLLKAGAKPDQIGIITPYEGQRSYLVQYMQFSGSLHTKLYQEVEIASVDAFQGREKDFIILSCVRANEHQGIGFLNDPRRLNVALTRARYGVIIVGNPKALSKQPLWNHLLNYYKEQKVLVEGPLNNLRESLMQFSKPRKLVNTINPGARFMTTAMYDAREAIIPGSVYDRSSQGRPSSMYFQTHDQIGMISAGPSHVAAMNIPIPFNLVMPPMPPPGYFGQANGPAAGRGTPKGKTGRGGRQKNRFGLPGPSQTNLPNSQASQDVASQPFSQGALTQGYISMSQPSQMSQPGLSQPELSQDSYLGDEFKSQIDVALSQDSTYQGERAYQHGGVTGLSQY

UPF1 G495R/G497E (human) = molecular target: T2, UPF1 G495R/G497E (human) (UniProt Q92900); assay: as above
T2 sequence: T1 sequence with D204V, I205V, G495R, G497E

B1: T7-DHX34 (wild-type) (protein, UniProt Q14147 1-1143)
chain: MPPPRTREGRDRRDHHRAPSEEEALEKWDWNCPETRRLLEDAFFREEDYIRQGSEECQKFWTFFERLQRFQNLKTSRKEEKDPGQPKHSIPALADLPRTYDPRYRINLSVLGPATRGSQGLGRHLPAERVAEFRRALLHYLDFGQKQAFGRLAKLQRERAALPIAQYGNRILQTLKEHQVVVVAGDTGCGKSTQVPQYLLAAGFSHVACTQPRRIACISLAKRVGFESLSQYGSQVGYQIRFESTRSAATKIVFLTVGLLLRQIQREPSLPQYEVLIVDEVHERHLHNDFLLGVLQRLLPTRPDLKVILMSATINISLFSSYFSNAPVVQVPGRLFPITVVYQPQEAEPTTSKSEKLDPRPFLRVLESIDHKYPPEERGDLLVFLSGMAEISAVLEAAQTYASHTQRWVVLPLHSALSVADQDKVFDVAPPGVRKCILSTNIAETSVTIDGIRFVVDSGKVKEMSYDPQAKLQRLQEFWISQASAEQRKGRAGRTGPGVCFRLYAESDYDAFAPYPVPEIRRVALDSLVLQMKSMSVGDPRTFPFIEPPPPASLETAILYLRDQGALDSSEALTPIGSLLAQLPVDVVIGKMLILGSMFSLVEPVLTIAAALSVQSPFTRSAQSSPECAAARRPLESDQGDPFTLFNVFNAWVQVKSERSRNSRKWCRRRGIEEHRLYEMANLRRQFKELLEDHGLLAGAQAAQVGDSYSRLQQRRERRALHQLKRQHEEGAGRRRKVLRLQEEQDGGSSDEDRAGPAPPGASDGVDIQDVKFKLRHDLAQLQAAASSAQDLSREQLALLKLVLGRGLYPQLAVPDAFNSSRKDSDQIFHTQAKQGAVLHPTCVFAGSPEVLHAQELEASNCDGSRDDKDKMSSKHQLLSFVSLLETNKPYLVNCVRIPALQSLLLFSRSLDTNGDCSRLVADGWLELQLADSESAIRLLAASLRLRARWESALDRQLAHQAQQQLEEEEEDTPVSPKEVATLSKELLQFTASKIPYSLRRLTGLEVQNMYVGPQTIPATPHLPGLFGSSTLSPHPTKGGYAVTDFLTYNCLTNDTDLYSDCLRTFWTCPHCGLHAPLTPLERIAHENTCPQAPQDGPPGAEEAALETLQKTSVLQRPYHCEACGKDFLFTPTEVLRHRKQHV
For B1, the binding [1] was “binds” and the binding (UPF1 G495R/G497E (human)) was “binds”.

From paper PMC4534575, “The RNA Helicase DHX34 Activates NMD by Promoting a Transition from the Surveillance to the Decay-Inducing Complex” (Cell Reports, 2014)
